# This is one part of the list. The main result of the screen is listed elsewhere. These columns were measured beside it and carry no call.
# Columns and labels:
# Experiment in all cases: Primary Screen for Target Class Profiling of Small Molecule Inhibitors of Methyltransferases
# [1] = target: Glycine N-methyltransferase (Homo sapiens) (UniProt Q14749); conditions: purified enzyme, MTase-Glo SAH luminescence; measured here: GNMT inhibition; at 40 µM; stronger effect = lower value
# Outline: (§1)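 Each enzyme was reacted with SAM and its substrate, with compounds tested once at 40 uM; SAH formed was read by MTase-Glo luminescence.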
# [2] = target: Guanidinoacetate N-methyltransferase (Homo sapiens) (UniProt Q14353); conditions: purified enzyme, MTase-Glo SAH luminescence; measured here: GAMT inhibition; at 40 µM; stronger effect = lower value
# Outline: as §1
# [3] = target: Histamine N-methyltransferase (Homo sapiens) (UniProt P50135); conditions: purified enzyme, MTase-Glo SAH luminescence; measured here: HNMT inhibition; at 40 µM; stronger effect = lower value
# Outline: as §1
# [4] = target: Nicotinamide N-methyltransferase (Homo sapiens) (UniProt P40261); conditions: purified enzyme, MTase-Glo SAH luminescence; measured here: NNMT inhibition; at 40 µM; stronger effect = lower value
# Outline: as §1
# [5] = target: Phenylethanolamine N-methyltransferase (Homo sapiens) (UniProt P11086); conditions: purified enzyme, MTase-Glo SAH luminescence; measured here: PNMT inhibition; at 40 µM; stronger effect = lower value
# Outline: as §1
# % is scaled to controls: 0 for no effect and ±100 for the full control effect.
Structure (SMILES),"activity change, negative = inhibition [1] [%]","activity change, negative = inhibition [2] [%]","activity change, negative = inhibition [3] [%]","activity change, negative = inhibition [4] [%]","activity change, negative = inhibition [5] [%]"
N#Cc1ccc(-c2cnc3[nH]cc(NC(=O)c4cccnc4)c3c2)cc1,-4.95,-44.9,5.34,123,-87.2
O=C(c1ccc2c(=O)nc3c(-c4ccccc4F)n[nH]n3c2c1)N1CCN(c2ccccc2)CC1,-17.1,4.11,-1.55,-2.63,0.894
COCCN1CC(CO)C2(CCN(Cc3cccc(OC)n3)CC2)C1 (stereo not given),-5.83,0.75,-2.98,-2.41,0.197
COc1ccc(CCO[C@@H]2O[C@H](CO[C@@H]3OC[C@H](O)[C@H](O)[C@H]3O)[C@@H](O)[C@H](O)[C@H]2O)cc1,-1.28,-8.57,1.25,-18.1,-6.18
CN1CCN(Cc2ccc(NC(=O)Cc3ccc(Oc4cc(NC(=O)C5CC5)ncn4)cc3)cc2C(F)(F)F)CC1,0.844,9.31,-50,-25.8,-8.14
CCN1C(=O)c2cc(C(=O)Nc3cccc(F)c3)nn2CC1(C)C(=O)NC1CCCC1 (stereo not given),-6.61,-4.12,-12.3,-3.09,-7.24
Cc1ccc(NS(=O)(=O)c2cc3[nH]c(=O)[nH]c3cc2C)cc1,-1.52,0,3.6,6.4,-18.7
CC(C)CN(CCN1C(=O)c2cc3occc3n2CC1(C)C(=O)NC1CCCCCC1)CC(C)C (stereo not given),2.32,-3.63,4.44,4.6,-0.198
CC1CCCC2OC2C(=O)c2c(O)cc(O)cc2CC(=O)O1 (stereo not given),-7.29,1.29,-3.24,-10.3,3.25
O=C(CCc1nnc2n(Cc3ccccc3Cl)c(=O)c3ccccc3n12)Nc1ccc(F)cc1,-5.51,-7.79,-2.7,-19.4,-8.5
Cc1cccc(C)c1NS(=O)(=O)c1ccc2[nH]c3c(c2c1)CCCC3,-8.18,0.646,-1.58,-11.9,-0.361
C=CCn1c(=O)c2ccc(C(=O)NC(C)CC)cc2n2c(=O)n(CC(=O)Nc3ccccc3C)nc12 (stereo not given),3.62,2.37,5.36,-6.4,-3.09
N#CC1CCN(C(=O)C2CCN(C(=O)c3ccc(-c4cncnc4)cc3)CC2)CC1,-2.85,0.004,0.04,-6.07,-2.12
COc1ccc2nc([C@H]3CCN(Cc4cccnc4)C3)[nH]c2c1,-7.38,-4.3,-27.8,-23.1,-3.27
COc1ccccc1CNC(=O)C1(C)Cn2nc(-c3ccccc3)cc2C(=O)N1CCC1=CCCCC1 (stereo not given),1.72,3.97,-0.437,3.72,-1.67
CNCCCC1c2ccccc2C=Cc2ccccc21,6.6,12,2.59,-12,0.344
COc1cc(O)cc(C)c1C(=O)O[C@@H]1[C@H](O)[C@@H](CO)O[C@H]1n1ccc(=O)[nH]c1=O,-1.37,-5.39,-8.13,-18.3,-3.04
Cc1ccc(-c2nccc(N3CCC(O)C3)n2)c(C)c1 (stereo not given),-2.87,-7.73,-6.01,-21.1,-12.2
CCCn1c(=O)c2ccc(C(=O)NCC(C)C)cc2n2c(=O)n(CC(=O)Nc3ccccc3CC)nc12,11.9,0,11.7,9.63,9.28
COCCCN1C(=O)c2c(NC(C)=O)c3cc(OC)ccc3n2CC1(C)C(=O)NC1CCCCC1 (stereo not given),-7.53,0.254,-1.92,3.13,-3.29
O=S(=O)(NCCc1noc(-c2ccccc2)n1)c1ccc2c(c1)OCCO2,-7.91,-4.66,-2.83,-12.6,-8.61
C#CCCCn1cc(-c2cccc3c2N[C@H](C)CC(=O)N3)cn1,-8.4,-3.4,3.89,-14.4,-0.182
Cc1cc(N2C(=O)c3cc4ccccc4n3CC2(C)C(=O)NC2CCCC2)ccc1Br (stereo not given),1.7,0.665,-3.2,0.987,-0.841
S=C(S)OC1CC2CC1C1CCCC21 (stereo not given),1.12,5.16,2.65,-10.9,3.36
O=c1c2ccccc2n2c(SCc3ccc(F)cc3)nnc2n1Cc1ccc(F)cc1,1.59,-0.925,3.65,-2.03,-0.794
CCOC(=O)c1cc2n(n1)CC(C)(C(=O)NCc1ccccc1OC)N(CCc1ccc(Cl)cc1)C2=O (stereo not given),-6.82,1.25,0.747,-11.2,-2.69
CC(C)CNC(=O)c1ccc2c(=O)n(C(C)C)c3nn(CC(=O)c4ccc(Cl)cc4)c(=O)n3c2c1,6.27,1.15,10.3,3.41,9.71
O=C(COc1ccc(-c2nnc3n2CCCC3)cc1)N1CCN(c2ccc(F)cc2)CC1,-0.417,0.171,-0.728,-3.67,3.52

# — PubChem BioAssay AID1745853 (National Center for Advancing Translational Sciences (NCATS), 2022)
